Data from US5648336A (University of Colorado, priority 1994, dated 1997).
Part of at least one peptide drawing is inferred or uncertain, most often the ends. Square brackets hold non-standard residues; d marks the D form. Peptide text beside a SMILES is read from it. Oic = O=C(O)[C@@H]1C[C@@H]2CCCC[C@@H]2N1; dIgl = N[C@@H](C(=O)O)C1Cc2ccccc2C1; Igl = N[C@H](C(=O)O)C1Cc2ccccc2C1; Hyp = O=C(O)[C@@H]1C[C@@H](O)CN1; 2Thi = N[C@@H](Cc1cccs1)C(=O)O

tested on: guinea pig ileum; assay: not given; conditions: vs double ED50 dose of bradykinin
Source text: A change of one unit of pA2 value represents an order of magnitude change in potency.
(§1) On isolated smooth muscles, agonist potency is given as percent of BK potency; antagonist potency is given as pA2, and is underlined. In blood pressure assays, the number is the dose of peptide in micrograms that causes 50% reduction in the effect of BK intraarterially administered as a bolus mixture in a 500 g male rat; Ag indicates unquantitated agonist activity; Ant indicates unquantitated antagonist activity.

In order of rising “Ileum Activity, antagonist potency given as pA2” value:
1. N=C(N)NCCC[C@@H](N)C(=O)N[C@@H](CCCNC(=N)N)C(=O)N1CCC[C@H]1C(=O)N1C[C@H](O)C[C@H]1C(=O)NCC(=O)N(CC(=O)N[C@@H](CO)C(=O)N[C@@H](C(=O)N1[C@H](C(=O)N[C@@H](CCCNC(=N)N)C(=O)O)C[C@@H]2CCCC[C@@H]21)C1Cc2ccccc2C1)C1Cc2ccccc2C1 [Compound 32, DArg-Arg-Pro-Hyp-Gly-Nigb-Ser-DIglb-Oic-Arg]  5.3
2. CC[C@H](C)[C@H](NC(=O)[C@H](NC(=O)[C@H](CO)NC(=O)[C@H](Cc1cccs1)NC(=O)CNC(=O)[C@@H]1C[C@@H](O)CN1C(=O)[C@@H]1CCCN1C(=O)[C@H](CCCNC(=N)N)NC(=O)[C@H](N)CCCNC(=N)N)C1Cc2ccccc2C1)C(=O)N[C@@H](CCCNC(=N)N)C(=O)O [Compound 38, DArg-Arg-Pro-Hyp-Gly-Thi-Ser-DIglb-Ile-Arg] (H-[dR]RP[Hyp]G[2Thi]S[dIgl]IR-OH)  6.8

tested on: hypotensive action of bradykinin; assay: Blood pressure in the anesthetized rat: inhibition of hypotensive action of bradykinin; assay type: in vivo; conditions: intraarterial bolus mixture with BK, 500 g male rat; indicated approximately
Source text: Potencies for the antagonists in this assay are not reported precisely, but rather are indicated approximately.
as §1

In order of falling “Blood Pressure: dose of peptide that causes 50% reduction in the effect of BK” value:
1. N=C(N)NCCC[C@@H](N)C(=O)N[C@@H](CCCNC(=N)N)C(=O)N1CCC[C@H]1C(=O)N1C[C@H](O)C[C@H]1C(=O)NCC(=O)N[C@H](C(=O)N[C@@H](CO)C(=O)N[C@@H](C(=O)N[C@H](C(=O)N[C@@H](CCCNC(=N)N)C(=O)O)C1Cc2ccccc2C1)C1Cc2ccccc2C1)C1Cc2ccccc2C1 [Compound 44, DArg-Arg-Pro-Hyp-Gly-Iglb-Ser-DIglb-Iglb-Arg]  50 micrograms
2. N=C(N)NCCC[C@@H](N)C(=O)N[C@@H](CCCNC(=N)N)C(=O)N1CCC[C@H]1C(=O)N1C[C@H](O)C[C@H]1C(=O)NCC(=O)N[C@@H](Cc1cccs1)C(=O)N[C@@H](CO)C(=O)N[C@@H](C(=O)NC1(C(=O)N[C@@H](CCCNC(=N)N)C(=O)O)CCCC1)C1Cc2ccccc2C1 [Compound 40, DArg-Arg-Pro-Hyp-Gly-Thi-Ser-DIglb-cLeu-Arg]  5 micrograms
3. Cc1ccc(C[C@H](NC(=O)CNC(=O)[C@@H]2C[C@@H](O)CN2C(=O)[C@@H]2CCCN2C(=O)[C@H](CCCNC(=N)N)NC(=O)[C@H](N)CCCNC(=N)N)C(=O)N[C@@H](CO)C(=O)N[C@@H](C(=O)N2[C@H](C(=O)N[C@@H](CCCNC(=N)N)C(=O)O)C[C@@H]3CCCC[C@@H]32)C2Cc3ccccc3C2)c(C)c1 [Compound 26, DArg-Arg-Pro-Hyp-Gly-DMF-Ser-DIglb-Oic-Arg]  5 micrograms
4. N=C(N)NCCC[C@@H](N)C(=O)N[C@@H](CCCNC(=N)N)C(=O)N1CCC[C@H]1C(=O)N1C[C@H](O)C[C@H]1C(=O)NCC(=O)N[C@@H](C(=O)N[C@@H](CO)C(=O)N1Cc2ccccc2C[C@@H]1C(=O)N1[C@H](C(=O)N[C@@H](CCCNC(=N)N)C(=O)O)C[C@@H]2CCCC[C@@H]21)C1Cc2ccccc2C1 [Compound 18, DArg-Arg-Pro-Hyp-Gly-DIglb-Ser-DTic-Oic-Arg]  5 micrograms
5. N=C(N)NCCC[C@H](NC(=O)[C@@H]1C[C@@H]2CCCC[C@@H]2N1C(=O)[C@H](NC(=O)[C@H](CO)NC(=O)[C@@H](NC(=O)CNC(=O)[C@@H]1C[C@@H](O)CN1C(=O)[C@@H]1CCCN1C(=O)[C@H](CCCNC(=N)N)NC(=O)[C@@H](CCCNC(=N)N)NC(=O)C12CC3CC(CC(C3)C1)C2)C1Cc2ccccc2C1)C1Cc2ccccc2C1)C(=O)O [Compound 2, Aca-DArg-Arg-Pro-Hyp-Gly-Iglb-Ser-DIg lb-Oic-Arg]  5 micrograms
6. N=C(N)NCCC[C@H](NC(=O)[C@@H]1C[C@@H]2CCCC[C@@H]2N1C(=O)[C@H](NC(=O)[C@H](CO)NC(=O)[C@H](Cc1cccs1)NC(=O)CNC(=O)[C@@H]1C[C@@H](O)CN1C(=O)[C@@H]1CCCN1C(=O)[C@H](CCCNC(=N)N)NC(=O)[C@@H](CCCNC(=N)N)NC(=O)CC12CC3CC(CC(C3)C1)C2)C1Cc2ccccc2C1)C(=O)O [Compound 56, Aaa-DArg-Arg-Pro-Hyp-Gly-Thi-Ser-DIglb-Oic-Arg]  5 micrograms
7. N=C(N)NCCC[C@@H](N)C(=O)N[C@@H](CCCNC(=N)N)C(=O)N1CCC[C@H]1C(=O)N1C[C@H](O)C[C@H]1C(=O)NCC(=O)N[C@@H](Cc1cccs1)C(=O)N[C@@H](CO)C(=O)N[C@@H](C(=O)N[C@@H](C(=O)N[C@@H](CCCNC(=N)N)C(=O)O)C1Cc2ccccc2C1)C1CCCC1 [Compound 9, DArg-Arg-Pro-Hyp-Gly-Thi-Ser-DCpg-DIglb-Arg]  5 micrograms
8. CC[C@H](C)[C@H](NC(=O)[C@H](NC(=O)[C@H](CO)NC(=O)[C@H](Cc1cccs1)NC(=O)CNC(=O)[C@@H]1C[C@@H](O)CN1C(=O)[C@@H]1CCCN1C(=O)[C@H](CCCNC(=N)N)NC(=O)[C@H](N)CCCNC(=N)N)C1Cc2ccccc2C1)C(=O)N[C@@H](CCCNC(=N)N)C(=O)O [Compound 38, DArg-Arg-Pro-Hyp-Gly-Thi-Ser-DIglb-Ile-Arg] (H-[dR]RP[Hyp]G[2Thi]S[dIgl]IR-OH)  0.5 micrograms
9. N=C(N)NCCC[C@@H](N)C(=O)N[C@@H](CCCNC(=N)N)C(=O)N1CCC[C@H]1C(=O)N1C[C@H](O)C[C@H]1C(=O)NCC(=O)N[C@@H](Cc1cccs1)C(=O)N[C@@H](CO)C(=O)N[C@@H](C(=O)N1Cc2ccccc2C[C@H]1C(=O)N[C@@H](CCCNC(=N)N)C(=O)O)C1Cc2ccccc2C1 [Compound 22, DArg-Arg-Pro-Hyp-Gly-Thi-Ser-DIglb-Tic-Arg]  0.5 micrograms
10. N=C(N)NCCC[C@@H](N)C(=O)N[C@@H](CCCNC(=N)N)C(=O)N1CCC[C@H]1C(=O)N1C[C@H](O)C[C@H]1C(=O)NCC(=O)N[C@H](C(=O)N[C@@H](CO)C(=O)N[C@@H](C(=O)N1[C@H](C(=O)N[C@@H](CCCNC(=N)N)C(=O)O)C[C@@H]2CCCC[C@@H]21)C1Cc2ccccc2C1)C1Cc2ccccc2C1 [Compound 1, DArg-Arg-Pro-Hyp-Gly-Iglb-Ser-DIglb-O ic-Arg]  0.5 micrograms
11. N=C(N)NCCC[C@@H](N)C(=O)N[C@@H](CCCNC(=N)N)C(=O)N1CCC[C@H]1C(=O)N1C[C@H](O)C[C@H]1C(=O)NCC(=O)N[C@H](C(=O)N[C@@H](CO)C(=O)N1Cc2ccccc2C[C@@H]1C(=O)N(CC(=O)N[C@@H](CCCNC(=N)N)C(=O)O)C1Cc2ccccc2C1)C1Cc2ccccc2C1 [Compound 43, DArg-Arg-Pro-Hyp-Gly-Iglb-Ser-DTic-Nigb-Arg]  0.5 micrograms
12. N=C(N)NCCC[C@H](NC(=O)[C@@H]1C[C@@H]2CCCC[C@@H]2N1C(=O)[C@H](NC(=O)[C@H](CO)NC(=O)[C@H](Cc1cccs1)NC(=O)CNC(=O)[C@@H]1C[C@@H](O)CN1C(=O)[C@@H]1CCCN1C(=O)[C@H](CCCNC(=N)N)NC(=O)[C@@H](CCCNC(=N)N)NC(=O)C1=CN2CCC1CC2)C1Cc2ccccc2C1)C(=O)O [Compound 59, Dhq-DArg-Arg-Pro-Hyp-Gly-Thi-Ser-DIglb-Oic-Arg]  0.5 micrograms
13. N=C(N)NCCC[C@H](NC(=O)[C@@H]1C[C@@H]2CCCC[C@@H]2N1C(=O)[C@H](NC(=O)[C@H](CO)NC(=O)[C@H](Cc1cccs1)NC(=O)CNC(=O)[C@@H]1C[C@@H](O)CN1C(=O)[C@@H]1CCCN1C(=O)[C@H](CCCNC(=N)N)NC(=O)[C@@H](CCCNC(=N)N)NC(=O)C12CC3CC(CC(C3)C1)C2)C1Cc2ccccc2C1)C(=O)O [Compound 55, Aca-DArg-Arg-Pro-Hyp-Gly-Thi-Ser-DIglb-Oic-Arg]  0.5 micrograms
14. N=C(N)NCCC[C@@H](N)C(=O)N[C@@H](CCCNC(=N)N)C(=O)N1CCC[C@H]1C(=O)N1C[C@H](O)C[C@H]1C(=O)NCC(=O)N[C@@H](C(=O)N[C@@H](CO)C(=O)N[C@@H](C(=O)N1[C@H](C(=O)N[C@@H](CCCNC(=N)N)C(=O)O)C[C@@H]2CCCC[C@@H]21)C1Cc2ccccc2C1)C1Cc2ccccc2C1 [Compound 30, DArg-Arg-Pro-Hyp-Gly-DIglb-Ser-DIglb-Oic-Arg]  0.5 micrograms
15. N=C(N)NCCC[C@@H](N)C(=O)N[C@@H](CCCNC(=N)N)C(=O)N1CCC[C@H]1C(=O)N1C[C@H](O)C[C@H]1C(=O)NCC(=O)N[C@@H](Cc1cccs1)C(=O)N[C@@H](CO)C(=O)N(CC(=O)N1[C@H](C(=O)N[C@@H](CCCNC(=N)N)C(=O)O)C[C@@H]2CCCC[C@@H]21)C1Cc2ccccc2C1 [Compound 16, DArg-Arg-Pro-Hyp-Gly-Thi-Ser-Nigb-Oic-Arg]  0.5 micrograms
16. Cc1ccc(C[C@@H](NC(=O)CNC(=O)[C@@H]2C[C@@H](O)CN2C(=O)[C@@H]2CCCN2C(=O)[C@H](CCCNC(=N)N)NC(=O)[C@H](N)CCCNC(=N)N)C(=O)N[C@@H](CO)C(=O)N[C@@H](C(=O)N2[C@H](C(=O)N[C@@H](CCCNC(=N)N)C(=O)O)C[C@@H]3CCCC[C@@H]32)C2Cc3ccccc3C2)c(C)c1 [Compound 27, DArg-Arg-Pro-Hyp-Gly-DDMF-Ser-DIglb-Oic-Arg]  0.5 micrograms
17. N=C(N)NCCC[C@@H](N)C(=O)N[C@@H](CCCNC(=N)N)C(=O)N1CCC[C@H]1C(=O)N1C[C@H](O)C[C@H]1C(=O)NCC(=O)N[C@@H](Cc1ccccc1)C(=O)N[C@@H](CO)C(=O)N[C@@H](C(=O)N1[C@H](C(=O)N[C@@H](CCCNC(=N)N)C(=O)O)C[C@@H]2CCCC[C@@H]21)C1Cc2ccccc2C1 [Compound 15, DArg-Arg-Pro-Hyp-Gly-Phe-Ser-DIglb-Oic-Arg] (H-[dR]RP[Hyp]GFS[dIgl][Oic]R-OH)  0.05 micrograms
18. N=C(N)NCCC[C@@H](N)C(=O)N[C@@H](CCCNC(=N)N)C(=O)N1CCC[C@H]1C(=O)N1C[C@H](O)C[C@H]1C(=O)NCC(=O)N[C@@H](Cc1ccccc1)C(=O)N[C@@H](CO)C(=O)N[C@H](C(=O)N1[C@H](C(=O)N[C@@H](CCCNC(=N)N)C(=O)O)C[C@@H]2CCCC[C@@H]21)C1Cc2ccccc2C1 [Compound 14, DArg-Arg-Pro-Hyp-Gly-Phe-Ser-Iglb-Oic-Arg] (H-[dR]RP[Hyp]GFS[Igl][Oic]R-OH)  0 micrograms
19. N=C(N)NCCC[C@@H](N)C(=O)N[C@@H](CCCNC(=N)N)C(=O)N1CCC[C@H]1C(=O)N1C[C@H](O)C[C@H]1C(=O)NCC(=O)N[C@H](C(=O)N[C@@H](CO)C(=O)N1Cc2ccccc2C[C@@H]1C(=O)N[C@@H](C(=O)N[C@@H](CCCNC(=N)N)C(=O)O)C1Cc2ccccc2C1)C1CCCC1 [Compound 13, DArg-Arg-Pro-Hyp-Gly-Cpg-Ser-DTic-DIglb-Arg]  0 micrograms
